Results as given in publication PMC4336329 (PLoS ONE, 2015).
Screen size: about 310,000 compounds; about 2,200 (0.71%) showed an effect of 50% or more. Effects have a minus sign here. The list shows a part of the results.

Target: human ether-à-go-go-related gene (hERG) potassium channel (human, UniProt Q12809)
Experiment: primary screen, population patch clamp on CHO cells stably expressing hERG

Sequence of human ether-à-go-go-related gene (hERG) potassium channel (Q12809 whole entry, looked up): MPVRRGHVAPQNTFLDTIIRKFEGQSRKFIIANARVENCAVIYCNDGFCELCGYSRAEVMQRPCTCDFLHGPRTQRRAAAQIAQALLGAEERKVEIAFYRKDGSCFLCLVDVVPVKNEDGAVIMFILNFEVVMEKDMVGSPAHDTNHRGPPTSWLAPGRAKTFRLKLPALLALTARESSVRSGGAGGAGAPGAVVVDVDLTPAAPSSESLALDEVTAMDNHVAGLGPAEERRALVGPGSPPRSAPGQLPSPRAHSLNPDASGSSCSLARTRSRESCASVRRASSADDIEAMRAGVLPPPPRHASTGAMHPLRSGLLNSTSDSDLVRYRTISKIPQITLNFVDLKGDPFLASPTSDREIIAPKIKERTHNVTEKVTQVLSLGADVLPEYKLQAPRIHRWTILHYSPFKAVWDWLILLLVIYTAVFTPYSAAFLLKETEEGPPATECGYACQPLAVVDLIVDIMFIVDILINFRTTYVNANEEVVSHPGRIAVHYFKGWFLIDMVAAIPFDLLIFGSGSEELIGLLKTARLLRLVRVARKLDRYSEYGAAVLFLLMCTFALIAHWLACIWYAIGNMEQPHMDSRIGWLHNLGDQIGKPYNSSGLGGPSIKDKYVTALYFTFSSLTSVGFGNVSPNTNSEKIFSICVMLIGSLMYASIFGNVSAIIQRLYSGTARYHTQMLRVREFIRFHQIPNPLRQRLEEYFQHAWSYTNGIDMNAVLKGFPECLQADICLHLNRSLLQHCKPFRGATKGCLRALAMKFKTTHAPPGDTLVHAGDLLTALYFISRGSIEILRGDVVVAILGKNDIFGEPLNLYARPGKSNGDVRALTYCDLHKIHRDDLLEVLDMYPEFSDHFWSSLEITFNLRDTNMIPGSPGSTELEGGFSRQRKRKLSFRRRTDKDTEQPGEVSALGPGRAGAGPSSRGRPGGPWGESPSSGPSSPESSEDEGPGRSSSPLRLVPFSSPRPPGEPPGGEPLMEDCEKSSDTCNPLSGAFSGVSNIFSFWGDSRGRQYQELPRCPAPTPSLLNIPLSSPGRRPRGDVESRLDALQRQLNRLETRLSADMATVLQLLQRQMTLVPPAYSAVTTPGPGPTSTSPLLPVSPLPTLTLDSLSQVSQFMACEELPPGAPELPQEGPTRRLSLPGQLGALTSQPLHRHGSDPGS

Structure (SMILES) | hERG current change (%, negative = inhibition) at 1uM
COC(=O)c1ccc(OCCN2CCCCCC2)cc1.O=C(O)C(=O)O | 7.77%
Cc1cc(C)c2[nH]c(C(=O)Nc3ccc4c(c3)OCO4)cc2c1 | 12.3%
OCCC1CN(Cc2cccc3nccnc23)CCN1Cc1ccc(F)cc1 (centres unmarked) | -7.96%
CN(C)c1nc(SCc2ccc(Cl)cc2)nc2c1CCCC2 | 12.7%
COc1ccc(N2CCN(c3nc(-c4cccs4)nc4ccccc34)CC2)cc1 | 15%
CCn1c(CCC(N)=O)nnc1SCC(=O)c1cc(C)n(C2CC2)c1C | -0.521%
O=C(CSc1nnc(SCc2ccc(Cl)cc2)s1)N/N=C/c1ccc(C(=O)O)cc1 | 21.5%
O=S(=O)(/N=C(/Nc1ccc(F)cc1F)c1ccccc1)c1ccccc1 | -3.06%
CCOC(=O)CN(C(=O)CCC(=O)Nc1cc(C)on1)C(C(=O)NC1CCCC1)c1cccnc1 (centres unmarked) | 2.22%
Cc1ccc(O)c(NC(=O)C2=CC(c3ccco3)=NS(=O)(=O)N2C)c1 | 3.41%
O=C(NC1CCN(C(=O)Nc2cccc(F)c2)CC1)C1CCCCC1 | 6.99%
C[C@H](NC(N)=O)C(=O)N1CCN(S(=O)(=O)c2ccc3ccccc3c2)CC1 | -40.6%
CC1C=CCC2C(=O)N(c3cccc(C(=O)Nc4ccc(F)cc4)c3)C(=O)C12 (centres unmarked) | 9.38%
CCOC(=O)C1C(c2ccccc2)C(C(=O)OCC)S(=O)(=O)C(CCN(CC)CC)S1(=O)=O (centres unmarked) | 7.2%
CN1CCCN(C(=O)c2c(F)cccc2Cl)CC1 | 21.5%
CCCCc1ccc(NC(=O)c2c(C)noc2C)cc1 | 7.48%
O=C(Nc1ccc(OCc2ccccc2)cc1)Nc1cccnc1 | 12%
Cc1ccccc1OCc1nc(-c2ccc(NC(=O)c3cccs3)cc2)no1 | 10.4%
COc1cccc(CC(=O)Nc2ccc3nc(C)sc3c2)c1 | 13.3%
CCOC(=O)COc1ccc(S(=O)(=O)N2CCN(c3ccc(OC)cc3)CC2)cc1 | 2.93%
CSc1cccc(NC(=O)N2CCCC(CNS(=O)(=O)Cc3ccccc3)C2)c1 (centres unmarked) | 8.43%
CC(=O)NC(Cc1cc(C)ccc1C)C(=O)N1CCN(C(=O)c2ccc([N+](=O)[O-])cc2)CC1 (centres unmarked) | 10.8%
O=C(CSc1ncn(-c2ccccc2)n1)Nc1nc(-c2ccccc2)cs1 | 10.1%

Structure (SMILES) | hERG current change (%, negative = inhibition) at 1uM
COc1ccc(OCCOC(=O)CNC(=O)c2cccc(C)c2)cc1 | 4.51%
O=C(O)c1cccc(-c2ccc(/C=N/n3cnnc3)o2)c1 | 11.4%
O=S(=O)(NCc1ccc2c(c1)OCO2)c1ccc2oc3ccccc3c2c1 | -7.24%
O=C(Nc1ccc2c(c1)OCCO2)c1ccc(Br)cc1 | 0.007%
COc1ccc(NC(=O)C2CCN(c3cnccn3)CC2)cc1OC | 11.9%
COc1ccc2c(c1)[C@H]1[C@H](CO2)[C@H](c2ccccc2)[C@]2(C)C(=O)Nc3ccccc3C(=O)N12 | -6.64%
Cc1cc(NC(=O)CCN2CCN(CCO)CC2)ccc1Br.Cl | 14.1%
CC(=O)Nc1ccc(C(=O)Nc2ccc3c(c2)OCCO3)cc1 | 5.37%
CCN1CCN(C(=O)c2cc3cc(F)ccc3[nH]2)CC1 | -40.5%
CCCN(CCC(=O)Nc1cc(OC)cc(OC)c1)CC1CC1.Cl | 3.78%
O=C(Nc1nccs1)c1ccc([N+](=O)[O-])cc1Cl | 11.3%
O=C(Cn1nc([N+](=O)[O-])nc1Br)NC1CCCCC1 | 6.96%
CC1CCC2(CC1)NC(=O)N(CC(=O)Nc1cccnc1Cl)C2=O (centres unmarked) | 11.4%
CCOP(=O)(OCC)C(NC(=O)c1ccc(C)cc1)=C(Cl)Cl | 9.41%
Cn1c(=O)n(C)c2cc(NS(=O)(=O)c3ccc(Cl)s3)ccc21 | 17.8%
Cc1ccc(S(=O)(=O)CCC(=O)OCn2nnc3ccccc3c2=O)cc1 | 8.34%
CCCCn1c(N)c(N(CC)C(=O)c2cccc(OC)c2)c(=O)[nH]c1=O | 6.92%
Cc1ccc(OCC(=O)OCC(=O)c2ccccc2)cc1C | 6.93%
Cc1cc(OC(=O)c2ccc(S(=O)(=O)N(C)C)cc2)c([N+](=O)[O-])c(=O)[nH]1 | 5.99%
CC1CCN(S(=O)(=O)c2nnc(NC(=O)c3cccc(Cl)c3)s2)CC1 | 5.4%
CCC(C)(C)C1CCC2(CC1)NC(=O)N(CC(=O)NCCc1ccc(OC)c(OC)c1)C2=O (centres unmarked) | 12.2%
O=C(Nc1nccs1)c1ccc(Cl)cc1[N+](=O)[O-] | 2.34%
CC(=O)N(NC(=O)c1ccccc1Cl)C1CC(=O)N(c2ccc(C)cc2)C1=O (centres unmarked) | 16.6%

Structure (SMILES) | hERG current change (%, negative = inhibition) at 1uM
COC(=O)c1ccc(N2CCOCC2)c(NC(=O)c2ccco2)c1 | 7.23%
O=C(Nc1cc(Cl)cc(Cl)c1)Nc1cnccn1 | 10.4%
N#Cc1c(N)nc2c(c1N)CC(CCl)O2 (centres unmarked) | 15.2%
COc1cccc(CN(Cc2ccco2)S(=O)(=O)c2ccc(S(=O)(=O)NCc3ccccc3)cc2)c1OC | 13%
N#Cc1ccccc1CSc1ccc(-c2nc3ccccc3[nH]2)cn1 | 16.2%
N=c1c(C(=O)NC2CCCCC2)cc2c(=O)n3ccccc3nc2n1CCc1ccccc1 | -88.1%
O=C(CNS(=O)(=O)c1ccc(Br)s1)NCC1COc2ccccc2O1 (centres unmarked) | 11.2%
COc1ccc(S(=O)(=O)N2CCN(Cc3cc(=O)n4ccccc4n3)CC2)cc1 | 3.94%
CCCCCOCC1CC(C/C(C)=N/Nc2nc(-c3ccccc3)cs2)C(=O)O1 (centres unmarked) | 0.71%
COc1ccc(S(=O)(=O)N(CC(=O)N2CCOCC2)Cc2ccccc2)cc1C | -0.723%
CCN(CC)S(=O)(=O)c1cccc(NC(=O)COC(=O)CNC(=O)c2cccc(F)c2)c1 | -11.1%
N/C(Cc1ccc([N+](=O)[O-])cc1)=N\OC(=O)C1CCCCC1 | 1.83%
CC1CCCN(C(C(=O)Nc2ccc3c(c2)OCO3)c2ccccc2)C1 (centres unmarked) | 12.1%
O=C(NC1CCCC1)C1c2ccccc2C(=O)N1C1CCCCC1 (centres unmarked) | -1.85%
CN(C)CCN1C(=O)C(O)=C(C(=O)c2ccco2)C1c1ccccc1F (centres unmarked) | 10.4%
Cc1cc(NC(=O)c2cc([N+](=O)[O-])cc([N+](=O)[O-])c2)n(-c2ccccc2)n1 | 13.3%
CCOC(=O)CSC(C)C(=O)Nc1nnc(C(C)C)s1 (centres unmarked) | 3.06%
COc1ccc(C2=NC(CO)(CO)CO2)cc1 | 16.1%
COc1cccc(NC(=O)CC(C)=O)c1 | 9.03%
O=C(Cc1ccc(-c2ccccc2)cc1)NC(c1ccccc1)c1ccccc1 | 13%
Cc1csc(NC(=O)c2c(O)c3c(n(CC(C)C)c2=O)CCCC3)n1 | -0.48%
Cc1ccccc1OCCCC(=O)NC1CCCCC1 | 15.7%
CCN(CC)S(=O)(=O)c1ccc(N=Nc2cc(C)cc(Br)c2O)cc1 | 12.2%

Structure (SMILES) | hERG current change (%, negative = inhibition) at 1uM
c1ccc(OCc2ccc(CCCN3CCOCC3)cc2)cc1 | -5.57%
COC(=O)C1=C(c2cc3ccccc3s2)C[C@@H]2CC[C@H]1N2C(=O)NCCNC(C)=O | 6.85%
COc1ccccc1NS(=O)(=O)c1cccc(N2CC(O)=C(c3ccccc3)C2=N)c1 | -0.787%
O=c1c2ccccc2ncn1CCCOc1ccccc1[N+](=O)[O-] | -18.8%
Clc1ccc(N2CCCCCC2)nn1 | 6.71%
NC(=O)N/N=C/c1ccccc1OCc1cccc2ccccc12 | 6.35%
C=C1c2ccccc2NC(=O)N1c1ccc(C)cc1 | 10.9%
C=CCc1cc(C=C2C(=O)N(C)C(=O)N(C)C2=O)cc(OCC)c1OCc1ccccc1 | 14.5%
Clc1ccccc1-c1nc(/C=N/N2CCOCC2)c2ccccn12 | 16.9%
CCOC(=O)CSc1nc(C)cc(C)c1C(N)=O | 9.75%
Cc1ccc(NC(=O)c2ccccc2F)nc1 | -2.15%
COc1cccc(Nc2ccc(-n3ccnc3)nn2)c1 | 12.3%
O=C(N1CCOCC1)N1CCN(c2ccccc2F)CC1 | 7.61%
Cc1ccc(C(=O)NCCCN2CCOCC2)cc1S(=O)(=O)N1CCOCC1 | 8.87%
COC(=O)c1cccc(NC(=O)c2cnoc2C)c1 | 1.75%
CCOC(=O)N1CCN(S(=O)(=O)c2ccc3[nH]cc(C(=O)O)c(=O)c3c2)CC1 | 5.65%
COc1ccc(/C(C)=N/NC(=O)CNC(=O)c2ccco2)c(OC)c1 | 11.1%
CC(=O)N1CCN(CCN=Cc2c(O)n(-c3ccc(C)cc3)c(=S)[nH]c2=O)CC1 | 13.8%
CC(C)c1ccc(/C=C/C(=O)NC(=S)NN2CCOCC2)cc1 | 11.6%
CN1CCN(Cc2c(O)ccc3cc(-c4ccccn4)c(=O)oc23)CC1 | 10.1%
